Measured values: PubChem BioAssay AID686979 (National Center for Advancing Translational Sciences (NCATS), 2013)
About 50,000 (12%) of roughly 420,000 compounds were called active. Inconclusive results, whose numbers are uncertain, are shown with a selection of clear calls. Calls come from the whole dose curve; as a rule, active = well fitted inhibition curve with a large enough effect; inconclusive = small, poorly fitted or top-dose-only effect; inactive = flat fitted curve, though single readings scatter. Potencies of inconclusive entries are left out as doubtful fits.

Test: qHTS for Inhibitors of human tyrosyl-DNA phosphodiesterase 1 (TDP1): qHTS in cells in presence of CPT; note: nearly all actives have a fitted effect of over 55% in size
Details: chicken DT40 Tdp1-/-;hTDP1 cells + 20 nM CPT, ATP luminescence, 48 h; activity change, negative = growth inhibition: at 46.2 µM (top of the series) unless noted
In short: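 Chicken DT40 Tdp1-/- cells complemented with human TDP1, 400 cells/well, exposed to compounds plus 20 nM camptothecin for at least 48 h at 37 C; viability read as ATP content by CellTiter-Glo luminescence.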
% is set by controls: 0 for no effect and ±100 for the full control effect; potency is the fitted concentration of half-maximal effect; tags give direction and shape of the fitted curve.

Compound	Potency	activity change, negative = growth inhibition
Cn1c(=O)oc2cc(S(=O)(=O)N3CCC(C(=O)N4CCN(c5ccccc5F)CC4)CC3)ccc21	inconclusive [inhibitor, single point]	–
OCCNc1nc(-c2cccs2)nc2ccccc12	inactive	–
COc1cc(Cl)c(C)cc1NC(=O)CC(c1ccc(F)cc1)N1Cc2ccccc2C1=O (stereo not drawn)	active: 23.1 µM	–
CCOC(=O)c1c(NC(=O)COc2cccc(C)c2C)sc2c1CCC(CC)C2 (stereo not drawn)	inactive	–
Cc1cc(C)c2c(N)c3ccccc3nc2n1	inconclusive [inhibitor, single point]	–
O=C(NCc1cccc(F)c1)c1ccc(NC(=O)c2nsc3ccccc23)cc1	inconclusive [inhibitor, partial curve]	–
COc1ccc(-c2c(C)c3ccc(O)c(CN4CCN(CCO)CC4)c3oc2=O)cc1OC	inconclusive [inhibitor, single point]	–
CCCCS(=O)(=O)c1oc(-c2ccc(F)cc2)nc1S(=O)(=O)c1ccc(C)cc1	active: 1.03 µM	–
COCCCn1c(C(=O)Nc2ccc3c(c2)OCO3)cc2c(=O)n3ccccc3nc21	active: 18.4 µM	–
O=S(=O)(Nc1ccccc1O)c1ccc(-c2ccccc2)cc1	inconclusive [inhibitor, partial curve]	–
OCC1(Cc2cccc(C(F)(F)F)c2)CCN(Cc2cc(F)cc(F)c2)CC1	inconclusive [inhibitor, single point]	–
Cc1oc(=O)cc(OCc2ccccc2)c1C	inconclusive [inhibitor, single point]	–
COc1ccc(CCNC(=O)C(=O)NCC2OCCN2S(=O)(=O)c2ccc(OC)cc2)cc1 (stereo not drawn)	inactive	–
C[C@@H]1CN([C@@H](C)CO)S(=O)(=O)c2ccc(Br)cc2O[C@H]1CN(C)Cc1ccccn1	active: 14.6 µM	–
O=C1CCC(C(=O)OC(C(=O)c2c[nH]c3ccccc23)c2ccccc2)=NN1 (stereo not drawn)	inactive	–
CCN(CC(=O)NC1CC1)S(=O)(=O)c1ccccc1	inactive	–
COc1cccc(Nc2nc(C(N)c3ccccc3Cl)cs2)n1 (stereo not drawn)	active: 20.6 µM	–
O=C(Nc1ncc([N+](=O)[O-])s1)c1cccs1	active: 18.4 µM	–
Nc1ccccc1SC(CC(=O)c1ccccc1)c1ccccc1 (stereo not drawn)	inconclusive [inhibitor, single point]	–
O=C(C[C@@H]1C[C@H]2c3cc(NC(=O)C4CCC4)ccc3O[C@H]2[C@@H](CO)O1)NCc1ccc(-c2ccccc2)cc1	active: 18.4 µM	–
N#Cc1ccccc1S(=O)(=O)N1CCN(CC(=O)Nc2ccccc2C(=O)NC2CC2)CC1	inactive	–
C/C(=N/NC(=O)c1cc(C)[nH]n1)c1ccco1	inactive	–
CCOC(=O)C1=CNS(=O)(=O)NC1c1ccc(C(F)(F)F)cc1 (stereo not drawn)	inactive	–
CO/N=C(/CS(=O)Cc1ccccc1Cl)c1ccc(Cl)cc1Cl (stereo not drawn)	inconclusive [inhibitor, partial curve]	–

Compound	Potency	activity change, negative = growth inhibition
Cc1ccc(C)c(N2CCN(C(=O)CSCc3ccccc3Cl)CC2)c1	inconclusive [inhibitor, single point]	–
COc1cccc(NC(=O)CC2Nc3cc(C)c(C)cc3NC2=O)c1 (stereo not drawn)	inconclusive [inhibitor, single point]	–
Cc1oc(-c2cccc(Cl)c2)nc1CS(=O)(=O)CC(=O)NC1CCCC1	inactive	–
CN(C)/C=N/n1cnc2ccccc2c1=O	inactive	–
Cc1ccsc1CNC(=O)c1c(-c2ccccc2)noc1C	inactive	–
O=C1CCCN2N=C(SCC(=O)N3N=C(c4ccc(Br)cc4)CC3c3ccc(F)cc3)SC2=N1 (stereo not drawn)	inconclusive [inhibitor, single point]	–
CN(C)CCCN1c2ccc3ccccc3c2Sc2cccc(Cl)c21	inconclusive [inhibitor, single point]	–
CC1C(=O)Nc2ccccc2N1C(=O)c1ccccc1 (stereo not drawn)	inactive	–
OC[C@@H]1O[C@H](n2cnc3c(SCc4ccccc4)ncnc32)[C@H](O)[C@H]1O	inconclusive [inhibitor, partial curve]	–
O=C(Nc1ccc(F)c(Cl)c1)Nc1nnc([C@@H]2O[C@H](CO)[C@@H](O)[C@H]2O)s1	inconclusive [inhibitor, single point]	–
CCOc1cc(-c2nc(-c3ccc(OC)cc3)no2)cc(OCC)c1OCC	inactive	–
O=C(NCCc1cnn(-c2ccccc2)c1)c1cc(COc2c(F)cccc2F)on1	inconclusive [inhibitor, single point]	–
CCOC(=O)[C@]12CCCC=C1N(Cc1cccc3ccccc13)C(=O)[C@H](CC(=O)N1CCN(C(=O)C3CC3)CC1)C2	inconclusive [inhibitor, single point]	–
O=C(CC(O)c1ccccc1)Nc1ccccn1 (stereo not drawn)	inactive	–
CCn1c2ccccc2c2nnc(SCCCn3c(=O)[nH]c4ccccc43)nc21	inconclusive [inhibitor, single point]	–
C/C(N)=C(/C#N)C(=O)CN1C(=O)NC(Cc2c[nH]c3ccccc23)C1=O (stereo not drawn)	inactive	–
CNS(=O)(=O)c1ccc(CNC[C@H]2O[C@@H](n3cnc(C(N)=O)n3)[C@H](O)[C@@H]2O)cc1	inactive	–
Cc1nn(C)cc1CN(C)C(=O)c1ccc(OC2CCN(Cc3ccccn3)CC2)cc1	inconclusive [inhibitor, partial curve, poor fit]	–
CCCn1c(N)c(N(CCOC)C(=O)c2cc3c(s2)CCC(CC)C3)c(=O)[nH]c1=O (stereo not drawn)	inactive	–
COc1ccccc1CNC(=O)c1cc(-c2cc(Cl)ccc2C)n[nH]1	active: 16.4 µM	–
CC(C)NC(=O)c1cc(C2CCCCN2S(=O)(=O)c2ccc(C#N)cc2)on1 (stereo not drawn)	inactive	–
CC(=O)N1c2ccccc2Sc2ccc3ccccc3c21	inconclusive [inhibitor, partial curve]	–
Cc1ccc(OCCOCCN2CCCC2)c(Br)c1	–	inconclusive: -32.6% [inhibitor]
Cc1ccc(C(=O)/C=C/NNC(=O)c2ccccc2O)cc1	active: 16.4 µM	–
